# Assay results as given in PubChem BioAssay AID652104 (National Center for Advancing Translational Sciences (NCATS), 2013).
# In all, about 410,000 compounds went through this assay and about 7,200 (1.8%) were called active. This list was built around the results that the source calls inconclusive (neither active nor inactive); the mix of calls is not that of the screen. Calls come from the whole dose curve; as a rule, active = well fitted activation curve with a large enough effect; inconclusive = small, poorly fitted or top-dose-only effect, or another doubt; inactive = no such curve, though single readings can be large or run the other way. No potency is given beside an inconclusive call; the fits are too rough.
# Experiment: qHTS of TDP-43 Inhibitors; note: nearly all actives have a fitted effect of over 50% in size; for growth rescue (activation): % of control where 0% means no effect
# Details: TDP-43 expressing yeast growth rescue, BacTiter-Glo, 24 h; growth rescue (activation): at 46.1 µM (top of the series) unless noted
# Procedure, shortened: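 Luminescence from BacTiter-Glo reports growth of TDP-43-expressing yeast after 24 hr at 30 deg C with compound. Cells were raffinose-pregrown to mid-log, then seeded in galactose medium at OD600=0.02.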
# Potency is the fitted concentration of half-maximal effect; tags give direction and shape of the fitted curve.
Structure (SMILES),Potency,growth rescue (activation)
Cc1cccc(C(=O)N2CCC(=O)N(C(COCc3cccc(C(F)(F)F)c3)Cc3ccccc3)CC2)c1 (configuration not stated),"inconclusive [activator, partial curve, poor fit]",–
CCOC(=O)c1noc2nc(C)n(CC(=O)Nc3ccc(OC)c(Cl)c3)c(=O)c12,–,inactive: 3.44%
COc1ccc(S(=O)(=O)Nc2ccc(Nc3ccccc3)cc2)cc1,"inconclusive [activator, partial curve]",–
COc1cccc(-c2nnc(-c3ccc(C(F)(F)F)cc3)o2)c1,"inconclusive [activator, partial curve]",–
Cc1nn(C)c2c1c(C(F)(F)F)cc(=O)n2CC(=O)N1CCN(c2ccccc2F)CC1,active: 22.4 µM,–
Cc1cc(-c2ccc(C)c(S(=O)(=O)N3c4ccccc4CC3C)c2)on1 (configuration not stated),–,inactive: -1.52%
CC(C)Oc1ccc(Br)cc1/C=N\NC(N)=S,"inconclusive [activator, single point]",–
CCc1nnc(NC(=S)Nc2ccccc2)s1,active: 12.6 µM,–
Cc1ccc(Oc2nc3ccccn3c(=O)c2/C=C(\C#N)c2nc3ccccc3s2)c(C)c1,–,inactive: 18.2%
CCN(CC)c1cc(C)c2cc(NC(=O)/C=C/c3ccccc3OC(C)C)ccc2n1,"inconclusive [activator, partial curve]",–
CCN(CC)c1ccc(NS(=O)(=O)c2ccc(-c3coc(C)n3)cc2)c(C)c1,–,inactive: 7.82%
O=C(CSc1nc2ccccc2o1)Nc1ccc(N2CCOCC2)c(Cl)c1,"inconclusive [activator, single point]",–
Cc1ccc(-n2nc(C)c3c(C(=O)O)cc(C)nc32)cc1,"inconclusive [activator, partial curve, poor fit]",–
O=C(Cn1ncc2c1-c1ccccc1OC2)N(Cc1ccco1)C1CCCCC1,"inconclusive [activator, partial curve]",–
O=C(CN1CCCSc2ccccc21)N1CCN(S(=O)(=O)c2ccccc2)CC1,–,inconclusive: 47.2% [activator]
CCCCN(C)C(=O)c1cc2cc3ccc(OC)cc3nc2s1,active: 17.8 µM,–
Cc1ccccc1C(=O)NCCSc1ccccc1,"inconclusive [activator, partial curve]",–
Cc1ccc(NC(=S)c2nc3ccccc3[nH]2)c(C)c1,active: 17.8 µM,–
CCOc1ccc(NC(=O)Nc2ccc3c(c2)N(C)C(=O)CS3)cc1,–,inconclusive: 23.9% [activator]
COCCNC(=O)c1cc2c(c(-c3cccc(-c4cccc(OC)c4)c3)n1)[C@H](CCO)N(S(=O)C(C)(C)C)C2 (some centres not stated),"inconclusive [activator, single point]",–
O=[N+]([O-])c1ncccc1OCc1ccc(-c2ccccc2)cc1,"inconclusive [activator, full curve, poor fit]",–
O=[N+]([O-])c1ccc(Cl)c(C2Nc3cccc4cccc(c34)N2)c1,"inconclusive [activator, partial curve]",–
CCCCN(CC)CCNC(=O)C1CCN(c2nnc(C)c3c(C)n(-c4ccc(C)cc4)nc23)CC1,–,inactive: 5.57%
CCc1ccc(CN(C)C(=O)c2cc(=O)c3ccccc3o2)cc1,"inconclusive [activator, single point]",–

Structure (SMILES),Potency,growth rescue (activation)
S=c1[nH]nc(C2CCCCC2)o1,"inconclusive [activator, partial curve]",–
CCOC(=O)CSc1nnc2n(-c3ccccc3)c(=O)c3c4c(sc3n12)COC(C(C)C)C4 (configuration not stated),"inconclusive [activator, partial curve, poor fit]",–
COc1ccc(N2CCC(CNC(=S)Nc3cccc(C)c3)C2)cc1 (configuration not stated),"inconclusive [activator, partial curve]",–
Cn1cc([N+](=O)[O-])c(C(=O)Nc2ccc(C3CCCCC3)cc2)n1,–,inactive: 13.5%
Cc1noc2ncnc(N3CCN(c4ccccc4F)CC3)c12,active: 22.4 µM,–
Cc1ccc(C)c(N2CCN(C(=O)c3ccc(N4CCCC4=O)cc3)CC2)c1,active: 20 µM,–
Cc1ccc(S(=O)(=O)N2CCN(C(=O)COC(=O)c3c(C)cc(C)cc3C)CC2)c(C)c1,"inconclusive [activator, partial curve]",–
COC(=O)C1CCN(C(=O)COC(=O)c2cc(-c3ccccc3)nc3ccc(OC)cc23)CC1,"inconclusive [activator, single point]",–
Cc1cccc(OCCSc2nc3ccc(NC(=O)COc4ccccc4F)cc3s2)c1,–,inactive: -14.7%
CCCSCCCNC(=O)c1cc2n(n1)CCCN(Cc1ccc(C)cc1)C2=O,"inconclusive [activator, single point]",–
Cc1ccc(C)c(NC(=O)CSc2ncc3c(n2)-c2cc(Cl)ccc2N(Cc2ccccc2F)S3(=O)=O)c1,–,inactive: 0%
Cc1ccc2cc3c(N)[nH]nc3nc2c1,"inconclusive [activator, full curve, poor fit]",–
N/C(=N\OC(=O)Cc1ccccc1[N+](=O)[O-])c1cccc(Br)c1,"inconclusive [activator, single point]",–
Cc1ccc(NC(=O)COC(=O)c2ccccc2-c2nc3ccccc3s2)c(C)c1,"inconclusive [activator, partial curve]",–
O=C(CCC1N=C2c3ccccc3N=C(SCc3ccccc3Cl)N2C1=O)N1CCN(c2ccccc2)CC1 (configuration not stated),"inconclusive [activator, partial curve]",–
N/C(=N\OC(=O)c1ccc(Cl)c(Cl)c1)c1cccc(CSc2ccccn2)c1,active: 11.2 µM,–
CC(=O)OCc1nc2sc3c(c2c(=O)[nH]1)CCCC3,–,inactive: 8.19%
CCOC(=O)C1(Cc2ccccc2C)CCCN(C(=O)c2ccc(C(C)=O)s2)C1 (configuration not stated),–,inactive: 27.3%
CC(C)Cc1cc(C(=O)N2CCN(C(c3ccccc3)c3ccccc3)CC2)no1,"inconclusive [activator, partial curve]",–
COc1ccc(-c2nc(C(F)(F)F)c(OC)o2)cc1OC,"inconclusive [activator, full curve, poor fit]",–
COc1ccccc1CCn1c(N)cc(=O)[nH]c1=O,–,inactive: -3.92%
COc1cc(/C=N/NC(=S)NC2CC3C=CC2C3)cc(OC)c1OC (configuration not stated),–,inactive: 21.7%
CNC(=O)c1c(NC(=O)c2ccc(S(=O)(=O)N3CCCC(C)C3)cc2)sc2c1CCC2 (configuration not stated),–,inactive: 5.2%
COc1ccc(/C(N)=N/OC(=O)Cc2ccccc2OC)cc1,active: 20 µM,–

Structure (SMILES),Potency,growth rescue (activation)
COC(=O)C=CSC(=S)C1CCCC1=N (configuration not stated),"inconclusive [activator, partial curve]",–
Oc1ccc(N=Nc2ccccc2C(F)(F)F)c2cccnc12,"inconclusive [activator, single point]",–
COC(=O)c1cccc(CN2C(=O)SC(Nc3ccc(Br)cc3)C2=O)c1 (configuration not stated),active: 15.8 µM,–
CN(C)c1cccc(F)c1C(=O)NC(=O)Nc1ccc(Cl)cc1,"inconclusive [activator, partial curve]",–
CCN(C(=O)C1CCN(c2nc(-c3ccc(OC)cc3)no2)CC1)c1ccc(OC)cc1,"inconclusive [activator, single point]",–
Cc1ccc(C)c(S(=O)(=O)N2CCN(CC(=O)Nc3ccc4c(c3)OCCO4)CC2)c1,"inconclusive [activator, single point]",–
COc1ccc(CCN(C(=O)c2cccc(F)c2)C2CC(=O)N(c3ccc(OC)cc3)C2=O)cc1 (configuration not stated),"inconclusive [activator, partial curve]",–
CC(C(=O)NCc1ccc2c(c1)OCO2)N1c2cccc3cccc(c23)S1(=O)=O (configuration not stated),active: 12.6 µM,–
O=C(CSc1ccc(Cl)cc1)N/N=C/c1ccc([N+](=O)[O-])o1,active: 12.6 µM,–
O=C(Nc1ccccc1)c1nc[nH]c1C(=O)NCc1ccccc1,–,inactive: 14.6%
S=C(NCC1(c2ccccc2)CCCC1)Nc1ccccc1,"inconclusive [activator, partial curve]",–
Cc1cc(C)cc(NC(=O)Nc2cccs2)c1,–,inactive: 12.7%
CC(=O)CSc1nc(-c2ccccc2)c(-c2ccccc2)o1,active: 15.8 µM,–
CCCCOc1ccc(C(=O)Nc2onc3c2CCCC3)cc1,"inconclusive [activator, full curve]",–
COC(=O)C1CCN(C(c2ccccc2Cl)c2sc3nc(-c4ccco4)nn3c2O)CC1 (configuration not stated),–,inactive: 20.4%
CCc1ccc2nc(/N=C(\N)NC(=O)c3ccccc3)nc(C)c2c1,"inconclusive [activator, single point]",–
COC(=O)c1ccc(CSc2nnc(Nc3ccc(OC)cc3)s2)o1,–,inactive: 14.4%
CCN=C1S/C(=C\c2sccc2C)C(=O)N1CC,"inconclusive [activator, partial curve]",–
Cc1cc(C(=O)OCC(=O)Nc2ccc(F)cc2)c(C)o1,"inconclusive [activator, partial curve]",–
Cc1ccc(S(=O)(=O)CCC(=O)N2CCc3ccccc32)cc1,"inconclusive [activator, partial curve]",–
Cc1ccccc1-c1cc(C(=O)N2CCCC2)c2ccccc2n1,"inconclusive [activator, partial curve]",–
C/C=C/C=N\NC(=O)c1ccncc1,"inconclusive [activator, full curve]",–
COCc1ccc(-c2c(-c3cccc(OC)c3)sc3ccc(OC)cc23)cc1,–,inactive: 20%
N/C(=N\OC(=O)C12CC3CC(CC(C3)C1)C2)c1ccncc1,active: 12.6 µM,–
